# Over roughly 33,000 sequences, “E-score (-0.5 to 0.5)” has its median near -0.012; the highest 2% begin near 0.27. The list shows a part of the results.
# Molecular target: T1, Vhr1 (UniProt P40522)
# T1 sequence: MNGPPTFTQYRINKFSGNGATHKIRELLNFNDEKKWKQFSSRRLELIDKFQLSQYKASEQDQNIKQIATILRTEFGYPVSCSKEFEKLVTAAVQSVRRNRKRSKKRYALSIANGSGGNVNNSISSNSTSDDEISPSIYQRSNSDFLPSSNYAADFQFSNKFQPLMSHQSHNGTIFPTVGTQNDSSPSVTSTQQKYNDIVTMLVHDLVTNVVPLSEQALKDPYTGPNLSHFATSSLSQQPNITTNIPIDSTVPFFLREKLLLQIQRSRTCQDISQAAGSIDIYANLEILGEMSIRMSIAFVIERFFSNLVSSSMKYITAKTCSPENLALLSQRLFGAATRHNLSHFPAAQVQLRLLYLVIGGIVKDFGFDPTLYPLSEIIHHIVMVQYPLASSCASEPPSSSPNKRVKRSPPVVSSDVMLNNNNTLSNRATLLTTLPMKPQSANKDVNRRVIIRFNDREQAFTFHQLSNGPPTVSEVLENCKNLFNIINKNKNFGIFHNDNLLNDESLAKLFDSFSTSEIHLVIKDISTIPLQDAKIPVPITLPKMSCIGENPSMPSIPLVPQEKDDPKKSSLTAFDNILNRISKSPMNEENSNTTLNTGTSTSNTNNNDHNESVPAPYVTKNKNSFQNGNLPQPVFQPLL
# Experiment: PBM E-score (8-mer binding enrichment) (E-score (-0.5 to 0.5)); higher = stronger / more preferred TF binding; most listed sequences are background and not binding sites
# Details: protein concentration: 200 nM; construct: GST-full length
# How it was run: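 GST-tagged yeast TFs (full-length or DNA-binding domain) were made by PURExpress in vitro transcription/translation and applied at about 100-200 nM to universal all-10-mer Agilent arrays. The arrays were made double-stranded by primer extension, on fresh or once-stripped slides. Bound protein was detected with fluorescent anti-GST, and scans were normalised with masliner. Each ungapped eight-base word, pooled with its reverse complement, received an E-score (modified Wilcoxon-Mann-Whitney statistic) from the Universal PBM Analysis Suite.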
row,Sequence,PBM E-score
1,AAATCCCC,-0.163
2,CATCTTTC,-0.226
3,ACACCCAT,0.191
4,GCTAACGA,-0.0417
5,AACTTACA,-0.034
6,CATAAATG,0.022
7,ACTCATCG,0.304
8,GACAGGAC,0.063
9,CGTGTCCC,0.134
10,GGCCAGGA,-0.105
11,AAGTAAGA,-0.146
12,AAGGCACG,-0.237
13,AAATGTCC,-0.349
14,AATGGCGT,0.00414
15,AAATTCCC,-0.154
16,GCGCTACA,-0.167
17,GGGGGATA,-0.109
18,GTGAAACA,0.0937
19,CCCCCAGG,-0.0911
20,ATGATTTC,0.249
21,ATCCTGGA,0.0612
22,GGTCCATA,0.0267
23,AGCCAGAC,0.0846
24,GGCCTAGA,-0.0432
25,AGGTAGTC,0.225

row,Sequence,PBM E-score
1,ACTCTGAC,0.204
2,CGTAAAAC,-0.264
3,CGACATTA,-0.0133
4,GTAGCCTA,-0.168
5,GTAGCGAC,-0.0738
6,GCATTGAA,-0.0212
7,CAGTTGCA,-0.035
8,CATGTTAC,0.231
9,GTAGCAAA,-0.0523
10,ATAGCTGA,-0.0235
11,GATTTCCA,0.0482
12,AAACCAGG,0.0647
13,ACCCTCAC,-0.0857
14,GGAAGATA,0.0181
15,CGCACCTC,0.0244
16,AAGCTAGA,-0.096
17,GTTAATGA,0.0145
18,CGACAGCC,0.00503
19,AAGACATC,-0.0967
20,CACGCAGG,-0.0242
21,TAGCGTCA,-0.148
22,CCATAGCC,-0.108
23,CAGCCCCG,-0.0611
24,CCGGCCGA,0.031
25,CACTCTTC,-0.0913

row,Sequence,PBM E-score
1,ATCGGCAT,0.0266
2,GTCGTGTA,0.174
3,AACCCACG,0.0933
4,ATATAGAT,0.12
5,AAAATGTG,0.027
6,CCGTGATA,-0.164
7,GAGTGGAC,-0.0407
8,GCGATGAC,0.233
9,AATCCACA,0.0279
10,CCGTCAAC,-0.188
11,AGGTTGGG,0.0359
12,CACCCCAG,-0.0397
13,TCACCCCA,0.305
14,AATATCCA,0.0202
15,AGTATGAC,0.311
16,AAGCTCGG,0.0437
17,ATTGTTCC,0.127
18,AGGCGGAG,0.206
19,AGTCGGCA,0.282
20,GCGCAGCC,-0.143
21,AGAGATTG,-0.0283
22,AGAGCTGA,0.0627
23,GCGGCAAA,-0.152
24,AATCCCCC,-0.185
25,ATGTAATC,0.177

row,Sequence,PBM E-score
1,AATCGCTG,-0.123
2,CGAATGTA,-0.0178
3,CAGCAAGA,-0.0328
4,CGCCATTA,0.0871
5,CTGCAAAC,-0.136
6,AATGAAGC,-0.155
7,CCCTGTCC,-0.16
8,GACTTGAC,-0.116
9,CCGTCTTA,-0.205
10,ACCGCTTA,-0.0904
11,CTCCTAAA,-0.232
12,CAATATTA,0.0205
13,TAGGAAAA,-0.22
14,CGAGCCGC,0.139
15,ATCCTAAC,0.0501
16,AGGTAAGG,-0.0705
17,AGACTACT,0.216
18,ACAAATGA,-0.171
19,GGACGCCA,-0.097
20,GCCGACCA,-0.115
21,CATAGGGG,-0.0569
22,CGCGTGAA,0.0136
23,ATGGTCAG,0.102
24,GAACTGGA,0.00065
25,TATGAAAA,-0.123

row,Sequence,PBM E-score
1,AGGATTAA,0.0103
2,GATAGGCA,-0.194
3,CAAACTCC,0.0591
4,TGAGCTAA,-0.158
5,AGAGACAA,-0.253
6,AACATGGT,-0.0365
7,GGAGCTAA,-0.183
8,ATGCTTAG,0.0684
9,AAGAAGCT,-0.191
10,TACCGAAA,-0.168
11,TACACAGA,0.0473
12,CCTTACAC,0.0106
13,AACAAGCG,0.0196
14,GACCATTA,-0.00214
15,ACTTACAC,0.1
16,AGCGCCTG,-0.154
17,CAATGTCG,0.0376
18,AATGAGTC,0.426
19,CTTAGCGA,0.0219
20,GCGTTGCC,-0.172
21,GTTATCCA,-0.0557
22,CCATAGAC,0.0316
23,AATTCATA,0.055
24,CCAGTTAA,-0.0583
25,CCAAACAG,0.0173

row,Sequence,PBM E-score
1,GAGTAGAC,0.0677
2,CAAAGCTC,-0.118
3,GAGCGCTA,0.0038
4,GCCAGGAA,0.0174
5,AGTGACAT,0.113
6,GACCGTCC,-0.0842
7,AACACGTA,-0.0122
8,AACGTAGG,-0.233
9,ACGCACTG,-0.00333
10,AAAAGACA,-0.0564
11,AATCATCA,0.374
12,CATGGAAA,0.0272
13,ACAGCAGG,0.168
14,GAGTGGGA,0.0583
15,CCCATTAA,-0.0295
16,CCACGCGG,-0.0573
17,GCTATTTA,0.0569
18,GAAGCATA,-0.124
19,ATGACGGA,0.0646
20,CTGTTTAC,-0.172
21,ACTCTGCC,0.0422
22,ACCGAGAA,-0.0145
23,CTCCTAAC,-0.0328
24,CGCAGCCA,0.0674
25,TCACAAGA,0.0715

row,Sequence,PBM E-score
1,ATGCGTAC,0.0948
2,GTTTGCGA,-0.0627
3,CGCCGAAC,0.0162
4,CTGATGAA,-0.171
5,AACCTGTC,-0.131
6,ATTCGACC,-0.168
7,CGCGTTCC,0.0149
8,TGTAATAA,-0.0497
9,GAGTGAGA,-0.0209
10,ATAGCCAT,0.153
11,AGTTGGGA,-0.102
12,CTACCAGA,0.00647
13,ACGACACA,0.219
14,ATAGCTCG,-0.00817
15,CAAGTAAG,-0.123
16,CAGCGAGG,-0.0601
17,AAACGATT,0.104
18,GCATCTGA,0.016
19,CCATTTGC,-0.0124
20,ACGAACCA,0.273
21,AGATTCCT,0.0667
22,GCCTATAC,-0.128
